Measurements reported in PubChem BioAssay AID1345083 (National Center for Advancing Translational Sciences (NCATS), 2018).
“And” between values parts separate entries of the source, which are not always exact repeats. Equal values may be shown once. Hit rate of the full screen: of about 94,000 compounds, about 6,200 (6.6%) were called active. The inconclusive results got no clear call from the source; some entries with a clear call stand among them for comparison. The call rests on the fitted dose curve; in most records, active means well fitted inhibition curve with a large enough effect; inconclusive means small, poorly fitted or top-dose-only effect; inactive means flat fitted curve, though single readings scatter. Where the call is inconclusive, the potency comes from a doubtful curve fit.

assay: Cytotoxic Profiling in HEK 293 Cell Line of Diverse Libraries Using Quantitative High-Throughput Screening; details: HEK 293 viability, ATP luminescence (CellTiter-Glo), 48-72 h; series mostly up to 115 µM; further: nearly all actives have a fitted effect of over 60% in size
How it was run: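 Luminescence from cellular ATP, measured with CellTiter-Glo, indicates HEK 293 viability. Cells plated at 250 cells/well are treated with compound for 48 or 72 hr at 37 degree Celsius before reagent addition.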
Potency means the concentration at half of the fitted maximal effect; tags describe the fitted curve by direction and shape.

Structure (SMILES) | Potency
O=C(NCc1ccccc1)C1(Oc2ccc(Cl)cc2)CCNCC1 | inconclusive: 79.4 µM [inhibitor, partial curve, poor fit]
Cc1ccsc1C(=O)N1CCOc2ccc(CN3CCc4ccccc4C3)cc2C1 | active: 35.5 µM
Cc1nn(-c2ccccc2)c2c1C(C(C)C)N(C1CCN(C(=O)c3cccc(Cl)c3)CC1)C2=O (configuration not stated) | active: 17.8 µM
CCC[C@H]1CN(C(=O)c2cccc(N3CCOCC3)c2)C[C@@H]1N | inactive
COc1ccc(-c2nc(C)nc3c2CCN([S+](=O)([O-])c2cccs2)CC3)cc1 | inconclusive: 79.4 µM [inhibitor, partial curve, poor fit]
COc1ccc(C(=O)N2CCC3(CC2)CC(c2nc(C)no2)N(C)C3)c(OC)n1 (configuration not stated) | inactive
Cc1nnc([C@H]2CCN(Cc3ccccc3)C2)o1 | inactive
NC(=O)c1ccccc1OCC(=O)N1CC(CNC(=O)Nc2ccccc2)C2(C1)CN(c1ccccc1)C2 (configuration not stated) | inconclusive: 79.4 µM [inhibitor, partial curve]
CCCNC(=O)C1C(c2cccc(NC(=O)c3ccc(C)cc3)c2)OC(=O)N1Cc1ccc(C)cc1 (configuration not stated) | inconclusive: 39.8 µM [inhibitor, partial curve]
COc1ccc(CNC(=O)[C@@H]2Cc3cn(CC4CC4)c4cccc(c34)[C@H](CC(C)C)N2)cc1 | inconclusive: 89.1 µM [inhibitor, partial curve, poor fit]
Cn1ncc2c(C(=O)NC3CCC3)cc(-c3ccccc3C(F)(F)F)nc21 | inconclusive: 89.1 µM [inhibitor, single point]
COc1ccc(-c2ccccc2NC(=O)C2CCCN(Cc3ccccc3O)C2)cc1 (configuration not stated) | active: 25.1 µM
CCn1c(C2CCCN(C(=O)c3cc(CC(C)C)nn3C)C2)nn(C)c1=O (configuration not stated) | inactive
COc1ccc(CNC(=O)C2(c3ccc(NC(C)=O)cc3)CCCCC2)c(OC)c1 | inactive
CN(Cc1ccccc1)Cc1cn([C@H]2CO[C@H]3[C@@H]2OC[C@@H]3NC(=O)CCC(=O)O)nn1 | inconclusive: 126 µM [inhibitor, single point]
O=C(c1ccc(F)cc1)N1CCN(c2nccc(Nc3ccccc3Cl)n2)CC1 | inconclusive: 35.5 µM [inhibitor, full curve, poor fit]
O=S(=O)(c1ccccc1)N1CCCC(c2nc(CCOc3ccc(F)cc3)no2)C1 (configuration not stated) | inconclusive: 89.1 µM [inhibitor, single point]
O=C(NCC1CCN(c2cc(-c3ccc(F)cc3)[nH]n2)CC1)c1ccc2nc[nH]c2c1 | inconclusive: 39.8 µM [inhibitor, partial curve, poor fit]
O[C@H]1[C@H](NCc2ccccc2)[C@H]2CO[C@H](O2)[C@@H]1Sc1ccccc1 | inconclusive: 112 µM [inhibitor, single point]
CCN1CCCCC12Cc1ccccc1CN(C(=O)C(C)C)C2 (configuration not stated) | inactive
O=C(NCc1ccc(F)cc1)C1CCc2nnc(CN[S+](=O)([O-])c3ccccc3Cl)n21 (configuration not stated) | inactive

Structure (SMILES) | Potency
O=C(NC1C[C@H]2CC[C@@H](C1)N2C(=O)CC1CCCCC1)c1ccc(F)cc1 (some centres not stated) | inconclusive: 89.1 µM [inhibitor, single point]
O=C(Nc1ccccc1)Nc1ccc(=O)n2c1[C@@H]1C[C@@H](CN(C(=O)Nc3ccc(F)cc3)C1)C2 | inactive
CC(=O)NC[C@@H]1C=C(C)[C@H](CC(=O)N(C)Cc2ccccc2)C[C@H]1C(C)C | inconclusive: 79.4 µM [inhibitor, partial curve]
O=C1CC2(CCN(C(=O)C3CCN(C(=O)c4ccc(F)cc4)CC3)CC2)Oc2ccccc2N1 | inconclusive: 89.1 µM [inhibitor, single point]
COc1ccc(Cl)cc1NC(=O)CCC1CCCN(S(=O)(=O)C2CC2)C1 (configuration not stated) | inconclusive: 20 µM [inhibitor, full curve]
COCC1CN(C(=O)NCc2ccc(F)cc2)CC12CCNCC2 (configuration not stated) | inactive
FC(F)(F)Oc1ccc(-c2cnc([C@@H]3COCCN3C3CCOCC3)[nH]2)cc1 | inactive
Cc1ccc(C)c(C(=O)NCc2nnc3cc(-c4nc(C5CC5)no4)ccn23)c1 | inconclusive: 31.6 µM [inhibitor, partial curve, poor fit]
CN1C(=O)N(CCc2ccccc2)C(=O)C12CCN(Cc1cn[nH]c1-c1ccc(F)cc1)CC2 | inconclusive: 44.7 µM [inhibitor, partial curve, poor fit]
Cc1c(F)cccc1NC(=O)N1CCCC(Cn2c(C)nc3cccnc32)C1 (configuration not stated) | inconclusive: 89.1 µM [inhibitor, single point]
COC[C@@H]1CN(C(=O)COc2ccc(Cl)cc2)C[C@H]1C(N)=O | inactive
O=C(NCc1ccc(F)cc1)[C@@H]1C[C@H](c2ccc(F)cc2)N([S+](=O)([O-])C2CC2)C1 | inconclusive: 112 µM [inhibitor, partial curve, poor fit]
CC(C)(C)OC(=O)N1CCC(NC(=O)c2nc(-c3ccccc3)c3ccccn23)CC1 | inconclusive: 50.1 µM [inhibitor, partial curve, poor fit]
CCN1C(=O)C2CC3(CCN(Cc4cccc(OC)c4)CC3)CN2C1=O (configuration not stated) | inconclusive: 79.4 µM [inhibitor, partial curve]
COc1ccc(C(=O)N2CC(c3nc(CCOc4cccc(C)c4)no3)C2)cc1F | inconclusive: 3.16 µM [inhibitor, full curve, poor fit]
COC(=O)N1CCN(c2nccc(Nc3ccccc3Cl)n2)CC1 | inconclusive: 50.1 µM [inhibitor, partial curve, poor fit]
C[C@]12CCC(=O)C=C1CCC[C@@H]2OCc1ccccc1 | inconclusive: 89.1 µM [inhibitor, single point]
Cc1ccc2nc(C3CCN(Cc4ccc(-c5cccs5)cc4)CC3)[nH]c(=O)c2c1 | inconclusive: 50.1 µM [inhibitor, partial curve, poor fit] and active: 35.5 µM
O=C(c1ccc[nH]1)N1CCC(n2cc(-c3nc(-c4ccccc4)no3)nn2)CC1 | inconclusive: 56.2 µM [inhibitor, partial curve, poor fit]
O=C(c1cccc(F)c1)N1CCCC(c2nccn2Cc2cscn2)C1 (configuration not stated) | inactive
Cc1cccc(CN2CCCC3(CCN(c4cc(C)nc(N)n4)C3)C2=O)c1 (configuration not stated) | inconclusive: 56.2 µM [inhibitor, partial curve, poor fit]

Structure (SMILES) | Potency
CC1=NS(=O)(=O)N(Cc2ccccc2)C=C1C(=O)OCc1nc(-c2ccccc2C)no1 | inconclusive: 31.6 µM [inhibitor, full curve, poor fit]
CCCc1nc(C(=O)N2CCC3(CCc4ccccc43)CC2)cs1 | inconclusive: 89.1 µM [inhibitor, single point]
O=C(Cc1ccsc1)N1CCC(c2noc(C3CC3)n2)C1 (configuration not stated) | inconclusive: 79.4 µM [inhibitor, partial curve, poor fit]
Cc1ccc(C(=O)N2CCN(c3cc(C(F)(F)F)ncn3)CC2)s1 | inconclusive: 39.8 µM [inhibitor, partial curve]
Cc1noc([C@@H](C)NC(=O)NC2(c3ccccc3)CCOCC2)c1C(=O)O | inconclusive: 126 µM [inhibitor, single point]
Cc1ccc(Nc2ccnc(N3CCC(NC(=O)c4ccccc4F)CC3)n2)cc1 | active: 50.1 µM
O=C1NC2(CCN(C(=O)c3ccccc3F)C2)Oc2ccccc21 (configuration not stated) | inactive
COCc1cc(C[C@@H]2CC[C@H](O)[C@@H](CN(CC3CCCCC3)CC3CCCCC3)O2)no1 | inconclusive: 50.1 µM [inhibitor, partial curve, poor fit]
O=C(c1cc(F)ccc1F)N1CC(Oc2ccccc2-c2nc(C3CC3)no2)C1 | inconclusive: 50.1 µM [inhibitor, partial curve, poor fit]
COc1cc(CN2CCC3(CC2)C(=O)NCN3Cc2ccc(Cl)cc2)ccc1F | inconclusive: 50.1 µM [inhibitor, partial curve, poor fit]
COCCn1cnc2ccc(OCc3ccc(C(F)(F)F)cc3)nc2c1=O | inconclusive: 100 µM [inhibitor, partial curve]
COc1cccc(C(=O)N2CCC(N3C[C@H](O)C[C@H]3C(=O)NCc3cccc(F)c3)CC2)c1 | inconclusive: 89.1 µM [inhibitor, single point]
CCN1c2cc(C(=O)Nc3ccc(OC)c(Cl)c3)ccc2C(=O)N2CCCCCC21 (configuration not stated) | active: 11.2 µM
Cc1cc(C)n(CCC(=O)N2CCCC(c3noc(COc4ccccc4)n3)C2)n1 (configuration not stated) | inconclusive: 44.7 µM [inhibitor, partial curve, poor fit]
c1c(CC2CCCCC2)nnn1[C@H]1CO[C@H]2[C@@H]1OC[C@@H]2NCC1CCCCC1 | inconclusive: 112 µM [inhibitor, partial curve, poor fit]
COc1cccc(CCC(=O)N2CCC(n3cc(-c4nc(-c5ccccc5)no4)nn3)C2)c1 (configuration not stated) | inconclusive: 50.1 µM [inhibitor, partial curve, poor fit]
C#CCNC(=O)C1CCCN1Cc1ccc(-c2cncnc2)cc1 (configuration not stated) | inactive
Cc1nnc2ccc(N3CCCN(C(=O)c4cccc(C(F)(F)F)c4)CC3)nn12 | inactive
O=C(c1cccc(Br)c1)N1CCN(c2cc(-c3ccc(Cl)cc3)[nH]n2)CC1 | active: 39.8 µM
O=C(c1ccc(F)cc1)N1CCn2c(nn(-c3ccc([N+](=O)[O-])cc3)c2=O)C1 | inactive
